# Data: publication PMC6212790
# This is one part of the list. At the low end of the ranking the order means little.
# Molecular target: T1, GST-Rok-C97-191 (UniProt O34857)
# T1 sequence: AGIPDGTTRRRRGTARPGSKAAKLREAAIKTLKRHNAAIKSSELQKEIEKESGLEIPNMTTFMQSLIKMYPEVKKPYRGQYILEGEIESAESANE
# Experiment: protein binding microarray;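 also: rank score from −0.5 (least bound) to 0.5 (best bound)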
# Conditions: Rok is a gene silencer of Bacillus subtilis; high values mean tight binding; most listed sequences are background and not binding sites; double strand, one strand shown
row,Sequence,binding signal [E-score]
1,TAGATCAA,0.156
2,ACATATAG,0.206
3,CAAAGTGA,-0.0177
4,CGCAATGA,0.0293
5,CTACCTAA,0.174
6,CCGGAGGC,-0.356
7,ACGTTCCG,-0.233
8,GTCACATA,0.116
9,AAAGAATC,0.031
10,AGTCACGC,-0.258
11,CAGAGGTC,-0.266
12,CGTGAGTA,0.0315
13,TAGCTCGA,0.126
14,GCATGAGA,-0.0679
15,GCGACTGA,-0.0717
16,GACAACGC,-0.201
17,ACCCAGTA,0.0467
18,GCGTTTTA,0.0397
19,CCTGCATC,-0.169
20,CAGCGTGA,-0.143
21,ACAGCACT,-0.14
22,CGGGATAG,-0.0175
23,CCTCTGAA,-0.157
24,GCGGACGA,-0.188

row,Sequence,binding signal [E-score]
1,AAAAGTTC,0.174
2,ACTTTATA,0.195
3,CATAACTA,0.266
4,GCCCATCC,-0.211
5,TAAGCACA,-0.0818
6,CCGGCCCG,-0.252
7,CTATGTTC,-0.118
8,ACTCTCCC,-0.157
9,GTACCATA,0.362
10,AACTAATT,0.344
11,GATATGTA,0.303
12,CATGACAC,-0.18
13,ACCGGAGC,-0.0944
14,CCACCGCC,-0.169
15,GATACTGA,0.0663
16,CGCGACGA,-0.141
17,CTAACATA,0.129
18,GGAATGAA,-0.129
19,GGAGTTCA,-0.0356
20,AACCGCGC,-0.221
21,TCTCAGCA,-0.0432
22,AGAACACA,0.145
23,AATTCGCT,-0.0172
24,TCCGCTCA,-0.118

row,Sequence,binding signal [E-score]
1,ATCCCCAG,-0.295
2,CTTTGCGC,-0.101
3,GCGCTTAA,0.0136
4,CAAGACAA,-0.0945
5,TAGAATCA,0.222
6,CTGGGATC,-0.14
7,CACAGGTG,-0.163
8,ACTCCAAG,-0.201
9,GCAGGGGA,-0.184
10,TAGGCATA,0.0965
11,GTTCACCA,-0.0973
12,TCACGCCA,-0.0789
13,GAGAGGGA,-0.219
14,AGTTAAGG,0.0755
15,AATGTTCA,0.254
16,GCTCCCAA,-0.262
17,CCACTGGC,-0.234
18,TCTTTCCA,-0.0693
19,CTCCACCA,-0.0804
20,AGCCGCAA,-0.144
21,GACGGAAA,0.0891
22,CTCGGCTC,-0.176
23,AATCACCT,0.0509
24,AGTCGTTG,-0.237

row,Sequence,binding signal [E-score]
1,GAACACGC,-0.0296
2,GGGAGTAA,-0.0957
3,CAAGCGCA,-0.0394
4,ATCAGAGG,0.0181
5,ATCGTCGC,-0.0659
6,TCTGGACA,-0.0595
7,ATTATTGG,0.106
8,AAGACCTT,-0.146
9,TCCATGGA,-0.104
10,CTAACGGC,-0.248
11,GGCCGACC,-0.362
12,CCACCACG,-0.193
13,GCTTTAGA,-0.024
14,GGGTACAA,0.0205
15,CGATCAGA,-0.145
16,CATAAGAC,0.00454
17,AGCTTACG,-0.0618
18,AAAGCTTG,-0.0903
19,CTAGTTAC,0.38
20,TTAAGAAA,0.148
21,ATCAGCTC,-0.0803
22,GATCGATC,0.163
